# Laboratory results taken from the supplement of paper PMC9542798.
# Key:
# Experiment in all cases: minimum inhibitory concentration
# Ampicillin = compound: CC1(C)S[C@@H]2[C@H](NC(=O)[C@H](N)c3ccccc3)C(=O)N2[C@H]1C(=O)O [Ampicillin]
# Description: (§1)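 Broth microdilution MIC per ISO 10932 on precoated VetMIC Lact-1 plates (tylosin, vancomycin and ampicillin plates prepared manually) against lactic acid bacteria and bifidobacteria isolates. Plates were read visually after 48 h anaerobic incubation (bifidobacteria 72 h; enterococci and staphylococci 24 h aerobic) at species-specific temperatures of 30 or 37 °C. Values prefixed with < or > are outside the tested dilution range.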
# Clindamycin = compound: CCC[C@@H]1C[C@@H](C(=O)N[C@@H]([C@H]2O[C@H](SC)[C@H](O)[C@@H](O)[C@H]2O)[C@H](C)Cl)N(C)C1 [Clindamycin]
# Description: as §1
# Erythromycin = compound: CC[C@H]1OC(=O)[C@H](C)[C@@H](O[C@H]2C[C@@](C)(OC)[C@@H](O)[C@H](C)O2)[C@H](C)[C@@H](O[C@@H]2O[C@H](C)C[C@H](N(C)C)[C@H]2O)[C@](C)(O)C[C@@H](C)C(=O)[C@H](C)[C@@H](O)[C@]1(C)O [Erythromycin]
# Description: as §1
# Tetracycline = compound: CN(C)[C@@H]1C(O)=C(C(N)=O)C(=O)[C@@]2(O)C(O)=C3C(=O)c4c(O)cccc4[C@@](C)(O)[C@H]3C[C@@H]12 [Tetracycline]
# Description: as §1
# Gentamicin = compound: CNC(C)C1CCC(N)C(OC2C(N)CC(N)C(OC3OCC(C)(O)C(NC)C3O)C2O)O1 [Gentamicin]
# Description: as §1
# Streptomycin = compound: CN[C@@H]1[C@H](O[C@H]2[C@H](O[C@H]3[C@H](O)[C@@H](O)[C@H](N=C(N)N)[C@@H](O)[C@@H]3N=C(N)N)O[C@@H](C)[C@]2(O)C=O)O[C@@H](CO)[C@H](O)[C@H]1O [Streptomycin]
# Description: as §1
# Vancomycin = compound: CN[C@H](CC(C)C)C(=O)N[C@H]1C(=O)N[C@@H](CC(N)=O)C(=O)N[C@H]2C(=O)N[C@H]3C(=O)N[C@H](C(=O)N[C@H](C(=O)O)c4cc(O)cc(O)c4-c4cc3ccc4O)[C@H](O)c3ccc(c(Cl)c3)Oc3cc2cc(c3O[C@@H]2O[C@H](CO)[C@@H](O)[C@H](O)[C@H]2O[C@H]2C[C@](C)(N)[C@H](O)[C@H](C)O2)Oc2ccc(cc2Cl)[C@H]1O [Vancomycin]
# Description: as §1
# Neomycin = compound: NC[C@@H]1O[C@H](O[C@H]2[C@@H](O)[C@H](O[C@@H]3[C@@H](O)[C@H](N)C[C@H](N)[C@H]3O[C@H]3O[C@H](CN)[C@@H](O)[C@H](O)[C@H]3N)O[C@@H]2CO)[C@H](N)[C@@H](O)[C@@H]1O [Neomycin]
# Description: as §1
# Kanamycin = compound: NC[C@H]1O[C@H](O[C@H]2[C@H](O)[C@@H](O[C@H]3O[C@H](CO)[C@@H](O)[C@H](N)[C@H]3O)[C@H](N)C[C@@H]2N)[C@H](O)[C@@H](O)[C@@H]1O [Kanamycin]
# Description: as §1
# Chloramphenicol = compound: O=C(N[C@H](CO)[C@H](O)c1ccc([N+](=O)[O-])cc1)C(Cl)Cl [Chloramphenicol]
# Description: as §1
# 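Also: isolates derived from commercial starter, protective, probiotic or feed-additive cultures, from fermented products, from human gut mucosa or feces, and from human milk or colostrum.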
Test System,minimum inhibitory concentration (Ampicillin) [µg/mL],minimum inhibitory concentration (Clindamycin) [µg/mL],minimum inhibitory concentration (Erythromycin) [µg/mL],minimum inhibitory concentration (Tetracycline) [µg/mL],minimum inhibitory concentration (Gentamicin) [µg/mL],minimum inhibitory concentration (Streptomycin) [µg/mL],minimum inhibitory concentration (Vancomycin) [µg/mL],minimum inhibitory concentration (Neomycin) [µg/mL],minimum inhibitory concentration (Kanamycin) [µg/mL],minimum inhibitory concentration (Chloramphenicol) [µg/mL]
Bifidobacterium adolescentis IM752 (strain group: human intestinal mucosa or faeces),8,0.12,0.25,16,64,64,0.5,64,256,2
Bifidobacterium animalis IM666 (strain group: human intestinal mucosa or faeces),0.125,0.12,0.25,16,128,> 256,0.5,256,512,2
Lactobacillus acidophilus IM1383 (strain group: probiotic strains),1,1,0.12,0.25,4,4,1,8,64,4
Bifidobacterium adolescentis IM797 (strain group: human intestinal mucosa or faeces),0.063,0.06,0.06,0.5,64,256,< 0.25,128,512,1
Lactiplantibacillus plantarum IM1472 (strain group: starter cultures),2,0.06,0.5,16,4,64,> 128,4,128,8
Lactiplantibacillus plantarum IM943 (strain group: human milk or colostrum),4,0.12,0.5,32,4,64,> 128,4,128,4
Latilactobacillus sakei IM1452 (strain group: starter cultures),8,2,0.5,2,16,64,64,16,32,4
Lactiplantibacillus plantarum IM1469 (strain group: starter cultures),4,0.06,0.5,16,8,64,> 128,32,128,8
Lacticaseibacillus paracasei IM1474 (strain group: starter cultures),4,0.12,0.12,1,2,16,> 128,4,32,4
Lactobacillus gasseri IM816 (strain group: human milk or colostrum),0.5,0.5,0.12,2,8,8,2,32,128,4
Bifidobacterium adolescentis IM766 (strain group: human intestinal mucosa or faeces),< 0.032,0.12,0.12,1,256,> 256,0.5,128,1020,2
Bifidobacterium animalis IM800 (strain group: human intestinal mucosa or faeces),0.125,0.12,0.25,16,128,128,1,> 256,512,2
Lactococcus lactis IM1381 (strain group: probiotic strains),0.25,0.12,0.25,0.25,< 0.5,8,0.5,1,4,4
Bifidobacterium animalis IM665 (strain group: human intestinal mucosa or faeces),0.25,0.12,0.25,16,128,256,0.5,256,1020,2
Bifidobacterium adolescentis IM755 (strain group: human intestinal mucosa or faeces),0.063,0.12,0.25,16,128,128,0.5,256,512,2
Bifidobacterium longum IM949 (strain group: human intestinal mucosa or faeces),1,0.12,0.25,2,32,> 256,0.5,64,256,2

Test System,minimum inhibitory concentration (Ampicillin) [µg/mL],minimum inhibitory concentration (Clindamycin) [µg/mL],minimum inhibitory concentration (Erythromycin) [µg/mL],minimum inhibitory concentration (Tetracycline) [µg/mL],minimum inhibitory concentration (Gentamicin) [µg/mL],minimum inhibitory concentration (Streptomycin) [µg/mL],minimum inhibitory concentration (Vancomycin) [µg/mL],minimum inhibitory concentration (Neomycin) [µg/mL],minimum inhibitory concentration (Kanamycin) [µg/mL],minimum inhibitory concentration (Chloramphenicol) [µg/mL]
Lactobacillus gasseri/johnsonii IM859 (strain group: human milk or colostrum),1,8,0.12,4,2,16,2,16,128,4
Bifidobacterium animalis IM786 (strain group: human intestinal mucosa or faeces),0.125,0.25,0.25,16,128,128,0.5,256,512,2
Streptococcus thermophilus IM1414 (strain group: starter cultures),0.25,0.06,0.12,0.5,2,16,0.5,4,32,2
Lactococcus lactis IM1321 (strain group: non-starter strains),2,0.25,1,0.5,4,64,0.5,8,16,4
Bifidobacterium animalis subsp. lactis IM558 (strain group: probiotic strains),0.125,< 0.03,0.25,8,256,128,0.5,> 256,512,2
Bifidobacterium adolescentis IM667 (strain group: human intestinal mucosa or faeces),0.25,0.25,0.5,0.5,8,64,1,32,128,2
Limosilactobacillus reuteri IM565 (strain group: probiotic strains),> 16,0.25,1,> 64,4,32,> 8,4,128,8
Lactobacillus acidophilus IM1477 (strain group: starter cultures),1,4,0.12,1,4,8,0.5,8,64,4
Bifidobacterium adolescentis IM793 (strain group: human intestinal mucosa or faeces),0.25,0.06,0.12,16,64,32,0.5,64,256,2
Lactobacillus delbrueckii subsp. bulgaricus IM1404 (strain group: starter cultures),0.125,< 0.03,< 0.016,0.5,< 0.5,1,0.5,< 0.5,4,2
Lactobacillus delbrueckii subsp. bulgaricus IM1401 (strain group: starter cultures),0.125,0.06,0.03,2,2,16,< 0.25,8,64,4
Lactococcus lactis IM1371 (strain group: starter cultures),0.5,0.5,0.25,0.5,2,32,0.5,16,16,4
Bifidobacterium adolescentis IM778 (strain group: human intestinal mucosa or faeces),0.25,0.12,0.25,16,128,128,0.5,256,512,2
Bifidobacterium adolescentis IM792 (strain group: human intestinal mucosa or faeces),0.125,0.06,0.12,16,128,64,0.5,256,512,2
Bifidobacterium adolescentis IM781 (strain group: human intestinal mucosa or faeces),< 0.032,0.12,0.25,1,128,256,1,128,256,2
Lactobacillus delbrueckii subsp. bulgaricus IM354 (strain group: probiotic strains),0.25,0.25,0.5,2,4,16,0.5,8,64,2
